Results taken from PubChem BioAssay AID1347428 (National Center for Advancing Translational Sciences (NCATS), 2020).
The whole screen tested about 91,000 compounds, of which about 290 (0.32%) were called active. This list was built around the results that the source calls inconclusive (neither active nor inactive); the mix of calls is not that of the screen. Calls follow the shape of the dose curve; as a rule, active = well fitted inhibition curve with a large enough effect; inconclusive = small, poorly fitted or top-dose-only effect; inactive = no such curve, though single readings can be large or run the other way. Potencies of inconclusive entries are doubtful fits and often do not repeat.

These compounds were tested against Single-stranded DNA cytosine deaminase (Homo sapiens) (UniProt Q9GZX7) (assay: Primary qHTS assay for inhibitors of Activation Induced Cytidine Deaminase (AID): AID signal). Settings: AID deamination FRET fluorescence, UDG-coupled, 4 h; activity change, negative = inhibition: at 115 µM (top of the series).
Sequence of UniProt Q9GZX7 (Q9GZX7 whole entry, looked up): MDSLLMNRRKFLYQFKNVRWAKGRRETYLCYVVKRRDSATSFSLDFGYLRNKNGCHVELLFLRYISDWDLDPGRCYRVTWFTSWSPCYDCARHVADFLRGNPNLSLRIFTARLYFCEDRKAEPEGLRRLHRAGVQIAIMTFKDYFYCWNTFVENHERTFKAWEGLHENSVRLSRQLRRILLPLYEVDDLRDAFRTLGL
% is scaled to controls: 0 for no effect and ±100 for the full control effect; potency is read from the fitted curve at half-maximal effect; tags tell the direction and shape of the fitted curve.
Also: nearly all actives have a fitted effect of over 25% in size.

Row | SMILES | activity change, negative = inhibition | Potency
1 | O=C(CCC(=O)OCC(=O)c1ccc([N+](=O)[O-])cc1)Nc1cc(C(F)(F)F)ccc1Cl | inactive: 1.65% | 
2 | CCn1c(SCc2ccccc2Cl)nc(=O)c2c(C(=O)OC)cc(C3CC3)nc21 |  | inconclusive: 50.1 µM [inhibitor, partial curve, poor fit]
3 | CCCNC(=O)Cc1c[nH]c2ccccc12 | inactive: -1.96% | 
4 | CCCCSCCCNC(=O)c1cn(CC)c2ccc(S(=O)(=O)N3CCCCCC3)cc2c1=O |  | inconclusive: 10 µM [inhibitor, partial curve, poor fit]
5 | CCN(C(=O)CSc1nc2ccccc2n1CC(=O)NCc1ccc(OC)cc1)c1ccccc1 |  | inconclusive: 70.8 µM [inhibitor, single point]
6 | CCC(C)(C)C1CCC(NC(=O)Cn2nc(C)c3ccccc3c2=O)CC1 (configuration not stated) | inactive: -7.55% | 
7 | COc1cccc(C(=O)N2CCc3c([nH]c4ccccc34)C2c2ccc(SC)cc2)c1 (configuration not stated) |  | inconclusive: 14.1 µM [inhibitor, partial curve, poor fit]
8 | CCCCCCCC/C=C\CCCCCCCC(=O)NCCO |  | inconclusive: 44.7 µM [inhibitor, partial curve, poor fit]
9 | COc1ccccc1NC(=O)CSc1nnc2c3ccccc3n(C(C)C)c2n1 |  | inconclusive: 56.2 µM [inhibitor, partial curve, poor fit]
10 | CNC(=O)C1CCC(Cn2c(=O)c3sccc3n(CC(=O)NCc3cccc(OC)c3)c2=O)CC1 (configuration not stated) |  | inconclusive: 2.82 µM [inhibitor, full curve, poor fit]
11 | COc1ccc(C(C)=O)cc1COC(=O)COc1cccc(Br)c1 | inactive: -7.94% | 
12 | Cc1ccc(NC(=O)CSCc2cnn(-c3ccccc3)c2-n2cccc2)c(C)c1 |  | inconclusive: 56.2 µM [inhibitor, partial curve, poor fit]
13 | Cc1ccc(NC(=O)CSc2nc3ccccc3c3nc(CCn4cncc4C)nn23)cc1F |  | inconclusive: 89.1 µM [inhibitor, single point]
14 | COc1cccc(C(=O)/C(C#N)=C\c2ccccc2C(F)(F)F)c1 | inactive: -20.4% | 
15 | Cc1cc(OC(C)C(=O)N(Cc2ccco2)Cc2ccccc2F)cc(C)c1Cl (configuration not stated) |  | inconclusive: 28.2 µM [inhibitor, full curve]
16 | Cc1ccc2ncc(C(=O)NCc3ccccc3Cl)c(=O)n2c1 |  | inconclusive: 89.1 µM [inhibitor, single point]
17 | CC(C)(C)OC(=O)N1CCC(c2c(C(=O)NC3CCN(Cc4ccccc4)CC3)cnn2-c2cccc(F)c2)CC1 |  | inconclusive: 56.2 µM [inhibitor, partial curve, poor fit]
18 | CC(C)c1ccc(/C=C(/C#N)C(=O)Nc2cccc3ncccc23)cc1 |  | inconclusive: 31.6 µM [inhibitor, partial curve, poor fit]
19 | O=C(Nc1ccccc1)NC1CCSc2ccccc21 (configuration not stated) | inactive: -4.28% | 
20 | COc1ccc(N(Cc2cccs2)C(=O)c2ccccc2C)cc1 |  | inconclusive: 8.91 µM [inhibitor, full curve, poor fit]
21 | CCOc1cc(C(=O)Nc2ccc3oc(-c4ccc(F)cc4Cl)nc3c2)cc(OCC)c1OCC |  | inconclusive: 8.91 µM [inhibitor, partial curve, poor fit]

Row | SMILES | activity change, negative = inhibition | Potency
22 | Cc1[nH]c(C#N)c(C)c1C=O | inactive: 2.54% | 
23 | O=C(c1nc(-c2ccc(Cl)cc2)n2c1CCCCC2)N1CCN(c2ccccc2F)CC1 |  | inconclusive: 39.8 µM [inhibitor, single point]
24 | COc1ccccc1Nc1nn2c(=O)c3ccc(C(=O)N4CCC(C)CC4)cc3nc2s1 |  | inconclusive: 79.4 µM [inhibitor, partial curve, poor fit]
25 | Cc1ccc(-n2nnc3c(N4CCN(C(=O)Cc5cccs5)CC4)ncnc32)cc1 |  | inconclusive: 39.8 µM [inhibitor, full curve]
26 | Cc1ccc(C(Nc2ccccn2)c2ccc3cccnc3c2O)cc1 (configuration not stated) | inactive: 11.6% [at 57.5 µM] | 
27 | CCCCOc1ccc(C2=NC(c3ccncc3)=Nc3ccc(Br)cc3N2)cc1 |  | inconclusive: 89.1 µM [inhibitor, partial curve, poor fit]
28 | CCn1ccc2cc(S(=O)(=O)N3CCCN(C(=O)Nc4ccccc4OC)CC3)ccc21 | inactive: -16.1% | 
29 | CCc1ccc(OCC(=O)N(Cc2cccs2)c2ccc(Cl)cc2)cc1 |  | inconclusive: 44.7 µM [inhibitor, partial curve, poor fit]
30 | CCCCCCCCCCS(=O)(=O)N/N=C/c1c[nH]c2ccccc12 | inactive: 7.46% | 
31 | CCN(C(=O)CCc1nc(-c2ccc(C)cc2)no1)c1cc(C)ccc1C |  | inconclusive: 50.1 µM [inhibitor, partial curve, poor fit]
32 | N#C/C(=C\c1ccc(OC(=O)C2CC2)cc1)C(=O)Nc1cccc(C(F)(F)F)c1 | inactive: 3.13% | 
33 | Cc1cccc(N2CCN(C(=O)c3cn(C4CCCCC4)c(=O)c4c3c3ccccc3n4C)CC2)c1C |  | inconclusive: 20 µM [inhibitor, partial curve, poor fit]
34 | Cn1c(COc2ccc(C(C)(C)C)cc2)nnc1SCc1ccc(F)cc1 |  | inconclusive: 56.2 µM [inhibitor, partial curve, poor fit]
35 | CCN1CCC(N(Cc2ccc3c(c2)OCO3)C(=O)Nc2cc(Cl)ccc2C(=O)OC)CC1 |  | inconclusive: 79.4 µM [inhibitor, single point]
36 | Cc1cccc(N2CCN(C(=O)c3ccc4c(c3)N(Cc3ccccc3F)C(=O)c3ccccc3S4=O)CC2C)c1 (configuration not stated) |  | inconclusive: 28.2 µM [inhibitor, full curve, poor fit]
37 | COc1cc2c(=O)c(C(=O)c3ccc(C)c(C)c3)cn(Cc3ccccc3)c2cc1OC |  | inconclusive: 17.8 µM [inhibitor, full curve, poor fit]
38 | Cc1ccc(C)c(N2CCN(C(=O)Cn3c(=O)c4cccn4c4ccc(F)cc43)CC2)c1 |  | inconclusive: 89.1 µM [inhibitor, single point]
39 | Cc1ccc(Nc2nc(NCCc3ccccc3)nc3c2cnn3C)cc1C |  | inconclusive: 56.2 µM [inhibitor, partial curve, poor fit]
40 | COCCNC(=O)CSc1c2c(nc3cc(Cl)ccc13)CCCC2 |  | inconclusive: 31.6 µM [inhibitor, partial curve, poor fit]
41 | Cc1ccc(CN(Cc2ccco2)C(=O)COc2c(C)cc(C)cc2C)cc1 |  | inconclusive: 50.1 µM [inhibitor, partial curve, poor fit]
42 | CCn1cc(S(=O)(=O)c2ccc(OC)cc2)c(=O)c2cc(F)c(N3CCC(C)CC3)cc21 |  | active: 17.8 µM

Row | SMILES | activity change, negative = inhibition | Potency
43 | CCn1c(-n2nc(C)cc2C)nc2c1c(=O)n(CCc1ccccc1)c(=O)n2C | inactive: -7.61% | 
44 | Cc1ccccc1CN1CCC(CNc2ncnc3onc(-c4ccc(Cl)cc4)c23)CC1 |  | inconclusive: 25.1 µM [inhibitor, full curve, poor fit]
45 | Cc1nc2cccnc2n1C1CCN(S(=O)(=O)c2ccc(Cl)cc2)CC1 | inactive: -11.9% | 
46 | CCn1cc(C(=O)N2CCN(c3cc(Cl)ccc3C)CC2)c2cc(OC)c(OC)cc2c1=O | inactive: -3.36% | 
47 | CCCN(CCC)CCCNC(=O)c1cc2c(=O)oc3ccc(C)cc3c2s1 |  | inconclusive: 100 µM [inhibitor, single point]
48 | CS(=O)(=O)Cc1ccc(CNCc2cccc3ccccc23)cc1 | inactive: -2.48% | 
49 | CCOC(=O)c1c(S(=O)(=O)N2CCC(C(=O)N3CCN(c4cccc(C)c4C)CC3)CC2)c(C)n(C)c1C |  | inconclusive: 22.4 µM [inhibitor, single point]
50 | CCc1noc(-c2ccc(NC(C)c3ccccc3)c([N+](=O)[O-])c2)n1 (configuration not stated) |  | inconclusive: 22.4 µM [inhibitor, full curve]
51 | CC(C)Oc1cccc(NC(=O)C2CCN(S(=O)(=O)Cc3ccccc3)CC2)c1 | inactive: 6% | 
52 | COc1ccc(N2CCN(C(=O)Cc3coc4ccc(C)cc34)CC2)cc1 |  | inconclusive: 56.2 µM [inhibitor, partial curve, poor fit]
53 | CCc1ccc(CNC(=O)c2ccc(CSc3nc4ccncc4n3Cc3ccc(OC)cc3)cc2)cc1 |  | inconclusive: 31.6 µM [inhibitor, partial curve, poor fit]
54 | Cc1cc(-c2ccc(C)c(S(=O)(=O)N3CCCC(C)C3)c2)on1 (configuration not stated) |  | active: 25.1 µM
55 | N#C/C(=C\c1ccc(-c2ccccc2C(=O)O)o1)c1nc2ccccc2[nH]1 |  | inconclusive: 50.1 µM [inhibitor, partial curve, poor fit]
56 | CN(Cc1ccccc1)C(=O)CSc1ncnc2sc3c(c12)CCC3 |  | inconclusive: 50.1 µM [inhibitor, partial curve, poor fit]
57 | COc1ccc(CNC(=O)c2ccc3c(c2)N=C(C)c2c(C)ccc(C)c2S3)cc1 |  | inconclusive: 28.2 µM [inhibitor, single point]
58 | CCN(CC)c1ccc(NC(=O)CN2CCN(S(=O)(=O)c3ccc(C(C)C)cc3)CC2)cc1 |  | inconclusive: 14.1 µM [inhibitor, full curve]
59 | CCOc1ccc(N2C(=O)c3[nH]nc(-c4ccccc4)c3C2c2ccc(O)c(OC)c2)cc1 (configuration not stated) |  | inconclusive: 28.2 µM [inhibitor, single point]
60 | CC1CCCCN1C(=O)CSc1nc2ccccc2nc1Cc1ccccc1 (configuration not stated) |  | active: 50.1 µM
61 | Cc1nc(N2CCOCC2)c2c(C(=O)N3CCN(c4cc(Cl)ccc4C)CC3)c(C)oc2n1 |  | inconclusive: 8.91 µM [inhibitor, full curve, poor fit]
62 | CC1CCN(CC(=O)N2CCCc3c2c(=O)oc2ccc(OCc4ccccc4)cc32)CC1 |  | inconclusive: 70.8 µM [inhibitor, partial curve, poor fit]
